{"source": "PubChem BioAssay AID485294", "about": "(National Center for Advancing Translational Sciences (NCATS), 2010)", "note": "About 150 (0.041%) of roughly 370,000 compounds were called active. The shares of active, inactive and inconclusive entries below differ from those in the screen. Calls come from the whole dose curve; as a rule, active = well fitted inhibition curve with a large enough effect; inconclusive = small, poorly fitted or top-dose-only effect; inactive = flat fitted curve, though single readings scatter. No potency is given beside an inconclusive call; the fits are too rough. Potency is the fitted concentration of half-maximal effect; tags give direction and shape of the fitted curve.", "data": [{"target": "Beta-lactamase (Escherichia coli (strain K12)) (UniProt P00811)", "sequence (P00811 whole entry, looked up)": "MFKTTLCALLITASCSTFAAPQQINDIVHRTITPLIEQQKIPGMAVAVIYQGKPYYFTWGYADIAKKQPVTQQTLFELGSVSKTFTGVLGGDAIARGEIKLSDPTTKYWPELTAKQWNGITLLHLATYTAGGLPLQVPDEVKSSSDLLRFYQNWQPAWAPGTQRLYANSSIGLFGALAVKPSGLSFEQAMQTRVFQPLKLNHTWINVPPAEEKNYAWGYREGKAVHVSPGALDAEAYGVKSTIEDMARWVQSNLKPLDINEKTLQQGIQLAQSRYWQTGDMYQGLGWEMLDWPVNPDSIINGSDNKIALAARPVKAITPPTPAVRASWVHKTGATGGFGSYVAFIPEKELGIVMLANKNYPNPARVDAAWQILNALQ", "assay": "qHTS Inhibitors of AmpC Beta-Lactamase (assay with detergent); note: nearly all actives have a fitted effect of over 25% in size;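 for activity change, negative = inhibition: 0% = no-compound wells and -100% = no-enzyme wells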", "conditions": "AmpC hydrolysis of nitrocefin, absorbance 480 nm, 0.01% Triton; activity change, negative = inhibition: at 114 µM (top of the series)", "summary_of_the_method": "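20 mM phosphate pH 7.0 + 0.01% (detergent screen) or 0.0001% Triton X-100; 5.3 nM AmpC reagent; cpd preinc 15 min RT; nitrocefin (800 uM stock) to start; A480 q20 s × 4 min; Activity was normalised to no-enzyme and no-compound control wells.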", "values": [{"smiles": "CCOc1ccc(CCNC(=O)CN2C(=O)NC3(CCc4ccccc43)C2=O)cc1OCC", "note": "(stereo not given)", "Potency": "inconclusive [inhibitor, partial curve, poor fit]"}, {"smiles": "COc1ccc(/C=N/NC(=O)c2cc(O)c(O)c(O)c2)cc1Cn1cc([N+](=O)[O-])cn1", "activity change, negative = inhibition": "inactive: 8.97%"}, {"smiles": "COCCCNc1ncnc2c1nnn2C", "activity change, negative = inhibition": "inactive: -0.735%"}, {"smiles": "CCOC(=O)C1CSc2[nH]c(=O)sc2C1c1ccccc1", "note": "(stereo not given)", "Potency": "inconclusive [inhibitor, partial curve, poor fit]"}, {"smiles": "O=C(Cn1c(-c2cncs2)nc2ccccc21)NC1CCCC1", "Potency": "inconclusive [inhibitor, single point]"}, {"smiles": "CCc1ccccc1NC(=O)C(=O)NCCc1sc(-c2cccc(C)c2)nc1C", "activity change, negative = inhibition": "inactive: 0.649%"}, {"smiles": "Cc1ccc(-n2c(SCc3cc(=O)n4ccsc4n3)nnc2-c2cccnc2)c(C)c1", "Potency": "inconclusive [inhibitor, full curve, poor fit]"}, {"smiles": "CC(C)(C)Nc1c(N)c(=O)oc2ccccc12", "Potency": "inconclusive [inhibitor, single point]"}, {"smiles": "COc1ccc(CCNC(=O)CN2C(=O)COc3ccc(S(=O)(=O)N4CCCCCC4)cc32)cc1OC", "activity change, negative = inhibition": "inactive: 0.828%"}, {"smiles": "COc1ccccc1NC(=O)C(=O)NCC(c1ccco1)N1CCc2ccccc2C1", "note": "(stereo not given)", "Potency": "inconclusive [inhibitor, full curve, poor fit]"}, {"smiles": "CCOC(=O)Cc1nnc(NC(=O)CSc2nnc3c(n2)[nH]c2ccccc23)s1", "Potency": "inconclusive [inhibitor, single point]"}, {"smiles": "CCOC(=O)/C(C#N)=C(/C)c1ccc(OC)cc1", "Potency": "inconclusive [inhibitor, full curve]"}, {"smiles": "CCc1ccc(CNC(=O)c2cnc3sc(N(CC)CC)nn3c2=O)cc1", "activity change, negative = inhibition": "inactive: 3.92%"}, {"smiles": "Cc1nn2c(=O)c(NC(=O)c3ccc(F)cc3)cnc2s1", "Potency": "inconclusive [inhibitor, full curve]"}, {"smiles": "O=C(N/N=C/c1ccccn1)c1ccc(Br)o1", "activity change, negative = inhibition": "inactive: 0.906%"}, {"smiles": "COc1ccc(/C=C2\\CCC(C3CCCC3)C2=O)cc1Cn1cccn1", "note": "(stereo not given)", "activity change, negative = inhibition": "inactive: -9.07%"}, {"smiles": "COc1ccc(CNC(=O)COC(=O)C2=COCCO2)cc1", "Potency": "inconclusive [inhibitor, full curve, poor fit]"}, {"smiles": "O=C(CCc1ccccc1)NNC(=O)COc1ccc([N+](=O)[O-])cc1", "Potency": "inconclusive [inhibitor, single point]"}, {"smiles": "CC(=O)O[C@]1(C(C)=O)CC[C@H]2[C@@H]3C=C(C)C4=CC(=O)CC[C@@H]4[C@H]3CC[C@@]21C", "Potency": "inconclusive [inhibitor, partial curve, poor fit]"}, {"smiles": "Cc1ccc(/C=N/N2CCN(c3ccccn3)CC2)o1", "activity change, negative = inhibition": "inactive: -15.4%"}, {"smiles": "Cc1cccc(N=C(NO)c2nonc2N)c1", "activity change, negative = inhibition": "inactive: -6.93%"}, {"smiles": "COc1ccc(OCC(=O)Nc2cccc(C(=O)Nc3ccccc3C(=O)O)c2)cc1", "Potency": "inconclusive [inhibitor, single point]"}, {"smiles": "CCc1ccc(S(=O)(=O)c2n[nH]n3c2nc(=O)c2ccccc23)cc1", "Potency": "inconclusive [inhibitor, partial curve]"}, {"smiles": "CCc1ccc(C(O)(CC)C(CN2CCOCC2)c2ccccc2)cc1", "note": "(stereo not given)", "activity change, negative = inhibition": "inactive: 3.03%"}, {"smiles": "CCOc1ccc(NS(=O)(=O)c2cc(C(=O)N(CC)CC(=O)NCc3cccs3)ccc2C)cc1", "Potency": "inconclusive [inhibitor, full curve]"}, {"smiles": "Cc1ccc(OCC(=O)Nc2ccccc2C(=O)OCc2cc(=O)n3c(C)csc3n2)cc1", "activity change, negative = inhibition": "inactive: 7.48%"}, {"smiles": "CN(c1ccc(C(=O)N2CCOCC2)cc1)S(C)(=O)=O", "Potency": "inconclusive [inhibitor, full curve, poor fit]"}, {"smiles": "Cc1cc(Nc2cccc(C(F)(F)F)c2)nc2ccc(NC(=O)c3cncc(Br)c3)cc12", "activity change, negative = inhibition": "inactive: 19.2%"}, {"smiles": "Cc1cc(C)c(NC(=O)c2cc3c(nc4sccn43)s2)c(C)c1", "Potency": "inconclusive [inhibitor, full curve]"}, {"smiles": "CN(C)C(=O)c1nc2ccccc2s1", "activity change, negative = inhibition": "inactive: -0.572%"}, {"smiles": "COc1ccc(OC)c(N/C(=N/c2nc(C)cc(C)n2)NC(C)=O)c1", "Potency": "inconclusive [inhibitor, partial curve]"}, {"smiles": "CNC(=O)c1cc(Cl)c(OC)c(OC)c1", "Potency": "inconclusive [inhibitor, partial curve, poor fit]"}, {"smiles": "CCOC(=O)N1CCN(CC(=O)Nc2c(C(=O)OC)[nH]c3ccccc23)CC1", "Potency": "inconclusive [inhibitor, partial curve]"}, {"smiles": "CCOC(=O)c1noc2nc(C)n(CC(=O)Nc3ccc(Br)cc3C)c(=O)c12", "activity change, negative = inhibition": "inactive: 1.11%"}, {"smiles": "CNc1c([N+](=O)[O-])cnn1-c1ccccn1", "activity change, negative = inhibition": "inactive: 1.32%"}, {"smiles": "C=CCOc1ccc(C2C(C(=O)c3ccco3)=C(O)C(=O)N2CCCN(CC)CC)cc1", "note": "(stereo not given)", "Potency": "inconclusive [inhibitor, full curve, poor fit]"}, {"smiles": "O=C(Nc1cccnc1)c1ccc(-c2ccc(Cl)cc2)o1", "activity change, negative = inhibition": "inactive: 2.62%"}, {"smiles": "O=C(NCCS(=O)(=O)N1CCN(c2ccccc2F)CC1)c1ccc2c(c1)OCO2", "Potency": "inconclusive [inhibitor, full curve, poor fit]"}, {"smiles": "CCOC(=O)C1=C(C)N=C2SC(C(=O)OC)=CC(=O)N2C1c1ccc(OC)cc1", "note": "(stereo not given)", "Potency": "inconclusive [inhibitor, single point]"}, {"smiles": "Cn1c(=O)c(C(=O)COC(=O)c2cc(C3CC3)nc3ccccc23)c(N)n(Cc2ccccc2)c1=O", "Potency": "inconclusive [inhibitor, full curve]"}, {"smiles": "CCOc1ccccc1C(=O)Nc1cc2c(cc1N1CCCCC1)n(C)c(=O)n2C", "activity change, negative = inhibition": "inactive: 2.71%"}, {"smiles": "O=[N+]([O-])c1nn(-c2ccc3c(c2)OCCO3)n(O)c1=NCCCO", "Potency": "inconclusive [inhibitor, single point]"}, {"smiles": "COc1cccc(NC(=O)CN(C)CC(=O)Nc2ccc(Cl)cc2[N+](=O)[O-])c1", "Potency": "inconclusive [inhibitor, partial curve]"}, {"smiles": "CCCCCC(=O)Cc1cc(O)cc2c1C(=O)Oc1cc(O)c(C(=O)O)c(CCCCC)c1O2", "activity change, negative = inhibition": "inactive: -1.53%"}, {"smiles": "CN(CCC1CCOCC1)C(=O)c1cc(COc2c(F)cccc2F)on1", "activity change, negative = inhibition": "inactive: 0.0715%"}, {"smiles": "Cc1ccc(Sc2cc(C(=O)NCCCN(C)C)c3ccccc3n2)cc1", "activity change, negative = inhibition": "inactive: -4.64%"}, {"smiles": "Cc1cc(C)n(CC(C)NC(=O)c2cc(COc3ccc(F)c(F)c3)on2)n1", "note": "(stereo not given)", "Potency": "inconclusive [inhibitor, partial curve]"}, {"smiles": "Cc1cc(NC(=O)c2cc(-c3ccccc3)on2)no1", "activity change, negative = inhibition": "inactive: 0.192%"}, {"smiles": "COc1cccc(NC(=O)CCc2nnc3n(CC(C)C)c(=O)c4ccccc4n23)c1", "Potency": "inconclusive [inhibitor, single point]"}, {"smiles": "COc1ccc(C2CC(c3cccs3)=NN2C(=O)COC(=O)c2cc3ccccc3cc2O)cc1OC", "note": "(stereo not given)", "Potency": "inconclusive [inhibitor, full curve, poor fit]"}, {"smiles": "Cc1cc(C)cc(NS(=O)(=O)c2ccc3[nH]cc(C(=O)NCc4ccco4)c(=O)c3c2)c1", "Potency": "inactive"}, {"smiles": "CCCn1c(N)c(N(CCOC)C(=O)C(C)Oc2ccc(F)cc2)c(=O)[nH]c1=O", "note": "(stereo not given)", "Potency": "inconclusive [inhibitor, partial curve]"}, {"smiles": "Cn1c(N)c(C(=O)CSc2nnc(Cc3cccs3)n2C2CC2)c(=O)n(C)c1=O", "activity change, negative = inhibition": "inactive: 7.55%"}, {"smiles": "CCCOC(=O)C1[C@H]2C(=O)N(CCCOC)C[C@]23C=C[C@H]1O3", "note": "(stereo not given in full)", "Potency": "inconclusive [inhibitor, single point]"}, {"smiles": "O=[N+]([O-])c1cc2c(cc1CN1CCN(c3ccccc3F)CC1)OCO2", "Potency": "inconclusive [inhibitor, partial curve, poor fit]"}, {"smiles": "CCC(c1ccc(O)cc1)C(CC)c1ccc(O)cc1", "note": "(stereo not given)", "Potency": "inconclusive [inhibitor, full curve]"}, {"smiles": "O=C(COc1ccc(Cl)cc1)Nc1cccc(-c2ccc(N3CCOCC3)nn2)c1", "Potency": "inconclusive [inhibitor, full curve]"}, {"smiles": "CCCCN(C)CCNC(=O)Cn1c(=O)sc2ccccc21", "Potency": "inconclusive [inhibitor, partial curve]"}, {"smiles": "Cc1ccc2c(c1)c(=O)c1ccccc1n2CCCC(=O)Nc1ccc(Cl)cc1C", "activity change, negative = inhibition": "inactive: 8.45%"}, {"smiles": "O=C(Cc1cn(Cc2cccc(Cl)c2)c2ccccc12)N1CCCC1", "Potency": "inconclusive [inhibitor, full curve, poor fit]"}, {"smiles": "COc1cc([N+](=O)[O-])ccc1NC(=O)COC(=O)CCOc1ccc(C)cc1", "Potency": "inconclusive [inhibitor, full curve, poor fit]"}, {"smiles": "COc1ccc(NC(=O)CSc2nnc(Cn3cnc([N+](=O)[O-])n3)n2C)cc1", "Potency": "inconclusive [inhibitor, partial curve, poor fit]"}, {"smiles": "COc1ccccc1Cn1c(=O)oc2ccc(C)cc21", "Potency": "inconclusive [inhibitor, partial curve, poor fit]"}, {"smiles": "O=C(O)c1cccc2c1C(=O)c1cc(Br)ccc1S2(=O)=O", "activity change, negative = inhibition": "inactive: -4.26%"}, {"smiles": "CCn1ncc(CN2CCC(Oc3cc(C(=O)NC4CC4)ccc3OC)CC2)c1C", "activity change, negative = inhibition": "inactive: -10.8%"}, {"smiles": "Cc1cc(Nc2ccc3c(c2)OCCO3)c2ccccc2n1", "Potency": "inconclusive [inhibitor, full curve, poor fit]"}, {"smiles": "Cc1ccc(-c2nc(S(=O)(=O)c3ccc(C)cc3)c(SCC(=O)c3ccccc3)o2)cc1", "activity change, negative = inhibition": "inactive: -1.09%"}, {"smiles": "COc1ccc(-n2nc(C(=O)Nc3ccc(C)cn3)c3c4ccccc4n(C)c3c2=O)cc1Cl", "activity change, negative = inhibition": "inactive: -1.89%"}, {"smiles": "O=C(O)CN1C(=O)c2ccc(Oc3cccc4c3C(=O)N(CC(=O)O)C4=O)cc2C1=O", "Potency": "inconclusive [inhibitor, single point]"}, {"smiles": "CCCCc1ccc(C2C(C#N)=C(N)SC(N)=C2C#N)s1", "Potency": "inconclusive [inhibitor, full curve, poor fit]"}]}]}
